Measured values as given in article PMC4336329 (PLoS ONE, 2015).
The whole screen tested about 310,000 compounds, of which about 14,000 (4.5%) showed an effect of 50% or more. Effects have a minus sign here. This is one part of the list.

molecular target: human ether-à-go-go-related gene (hERG) potassium channel (human, UniProt Q12809); assay: primary screen, population patch clamp on CHO cells stably expressing hERG
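Also: peak tail current of the secondary pulse compared with the same well before compound.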

Chain of human ether-à-go-go-related gene (hERG) potassium channel (Q12809 whole entry, looked up): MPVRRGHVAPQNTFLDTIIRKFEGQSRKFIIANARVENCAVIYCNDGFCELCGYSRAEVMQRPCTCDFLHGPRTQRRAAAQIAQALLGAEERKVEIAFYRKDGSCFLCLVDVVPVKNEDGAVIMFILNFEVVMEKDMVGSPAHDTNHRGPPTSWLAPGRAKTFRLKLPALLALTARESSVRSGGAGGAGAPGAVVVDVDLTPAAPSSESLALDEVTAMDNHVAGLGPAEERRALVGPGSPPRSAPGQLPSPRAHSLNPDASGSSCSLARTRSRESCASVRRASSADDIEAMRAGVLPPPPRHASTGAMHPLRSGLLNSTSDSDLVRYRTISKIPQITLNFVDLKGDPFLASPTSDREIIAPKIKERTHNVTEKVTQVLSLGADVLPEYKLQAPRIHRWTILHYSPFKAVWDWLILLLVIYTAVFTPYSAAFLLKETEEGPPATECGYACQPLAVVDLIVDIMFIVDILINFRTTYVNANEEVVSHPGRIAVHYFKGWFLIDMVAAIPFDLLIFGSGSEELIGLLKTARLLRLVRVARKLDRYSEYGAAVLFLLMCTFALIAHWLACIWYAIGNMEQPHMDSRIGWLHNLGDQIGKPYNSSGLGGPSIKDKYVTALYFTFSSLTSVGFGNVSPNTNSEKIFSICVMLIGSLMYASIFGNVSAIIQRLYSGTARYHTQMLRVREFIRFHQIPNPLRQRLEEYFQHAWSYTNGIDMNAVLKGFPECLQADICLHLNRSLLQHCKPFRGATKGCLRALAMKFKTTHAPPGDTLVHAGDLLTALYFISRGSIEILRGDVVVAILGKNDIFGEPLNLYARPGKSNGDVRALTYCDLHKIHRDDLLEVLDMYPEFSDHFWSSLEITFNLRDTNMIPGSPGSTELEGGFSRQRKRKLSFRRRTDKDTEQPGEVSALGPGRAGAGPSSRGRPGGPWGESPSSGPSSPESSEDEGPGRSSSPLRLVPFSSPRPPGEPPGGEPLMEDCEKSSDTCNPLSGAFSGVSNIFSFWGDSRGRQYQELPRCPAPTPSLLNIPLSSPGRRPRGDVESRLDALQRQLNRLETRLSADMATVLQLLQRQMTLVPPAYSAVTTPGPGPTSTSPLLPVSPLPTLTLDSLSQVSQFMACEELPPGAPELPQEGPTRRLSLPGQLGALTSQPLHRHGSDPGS

Going from `Cc1ccc(Sc2ncccc2C(=O)N(C)Cc2cccs2)c(C)c1` to `CC(Sc1nc(-c2ccc(F)cc2)cs1)C(=O)Nc1ccc(Cl)cn1` (centres unmarked), the “hERG current change (%, negative = inhibition) at 10uM” value rises from -6.44% to 8.7%.

First: COCC(=O)n1nc(-c2ccc(Cl)cc2)nc1NCc1ccc(F)cc1
Second: CS(=O)(=O)N(CC(=O)NCc1cccnc1)Cc1ccc(Cl)cc1
The “hERG current change (%, negative = inhibition) at 10uM” value of the first is higher: 2.39% for the first, -30.1% for the second.

First: COc1ccc(NC(=O)CSc2nc(N)c(NC(=O)c3cccs3)c(=O)[nH]2)cc1
Second: CCCNC(=O)c1ccc2c(=O)c(O)c(-c3ccc(OC)cc3)[nH]c2c1
The “hERG current change (%, negative = inhibition) at 10uM” value of the first is lower: 9.34% for the first, 14.3% for the second.

Going from `CCc1ccc(NC(=O)c2ccc(F)c(S(=O)(=O)NCC3COc4ccccc4O3)c2)cc1` (centres unmarked) to `Cc1ccccc1NS(=O)(=O)c1ccc(NC(=O)c2ccco2)cc1`, the “hERG current change (%, negative = inhibition) at 10uM” value rises from -14.3% to 7.68%.

Going from `CCC(=O)N1CCN(c2ccccc2NC(=O)COc2cc(C)ccc2C(C)C)CC1` to `COC(=O)c1cc(NC(=S)NC(=O)c2ccccc2)ccc1N1CCOCC1`, the “hERG current change (%, negative = inhibition) at 10uM” value falls from -27% to -27.1%.

First: O=C(COc1ccccc1)NNC(=S)NC(=O)c1ccccc1
Second: CCC(=O)Nc1ccc(NC(=S)NC(=O)Cc2ccccc2)cc1
The “hERG current change (%, negative = inhibition) at 10uM” value of the first is higher: 16.5% for the first, 11.8% for the second.

Compared with `CCOc1ccc(S(=O)(=O)Nc2ccc(C(=O)NCC(c3ccco3)N3CCCCC3)cc2)cc1` (centres unmarked), `Cc1ccc(S(=O)(=O)NC(CC(=O)N2CCc3ccccc32)c2ccco2)cc1` (centres unmarked) is higher in “hERG current change (%, negative = inhibition) at 10uM” value: -25.1% for the first, -8.95% for the second.

Compared with `CCn1c(SCC(=O)N2CCOCC2)nnc1-c1ccco1`, `Cc1cc(NCCN2CCOCC2)n2c(nc3ccccc32)c1C#N` is higher in “hERG current change (%, negative = inhibition) at 10uM” value: -19.3% for the first, -6.09% for the second.

Compared with `Cc1cccnc1NC(=S)Nc1ncccc1C`, `O=C(/C=C/c1ccc(Cl)cc1Cl)NC(=S)Nc1ccccn1` is higher in “hERG current change (%, negative = inhibition) at 10uM” value: 11.4% for the first, 16.9% for the second.

Going from `CC(C)C(NC(=O)c1ccccc1)C(=O)OCC(=O)N1CCCCC1` (centres unmarked) to `O=C(Cc1ccccc1)NCC(=O)N1CCC1`, the “hERG current change (%, negative = inhibition) at 10uM” value falls from 16.9% to 8.63%.

Going from `COc1cccc(OC)c1C(=O)OCC(=O)N(C)c1ccccc1` to `COc1cccc(NC(=O)CN(C)C(=O)CC(C)c2ccccc2)c1` (centres unmarked), the “hERG current change (%, negative = inhibition) at 10uM” value rises from 7.96% to 16.5%.

Compared with `Cc1cccc(CSc2ncnc3c2cnn3Cc2ccccc2)c1`, `Cc1cccc(S(=O)Cc2ccc(C(=O)NC3CCN(Cc4ccccc4)CC3)o2)c1` (centres unmarked) is lower in “hERG current change (%, negative = inhibition) at 10uM” value: 4.43% for the first, -12.9% for the second.

Compared with `Cc1cc(C)c(NC(=O)COC(=O)C2CCC(=O)N2)c(C)c1` (centres unmarked), `Cc1cccc(C)c1NC(=O)CNC(=O)c1ccc(N2CCCC2)c([N+](=O)[O-])c1` is lower in “hERG current change (%, negative = inhibition) at 10uM” value: -7.5% for the first, -25.7% for the second.

Compared with `Cc1ccccc1C(=O)N(CC(=O)Nc1sc(C)c(C)c1C(N)=O)C1CCCC1`, `CC(=O)N1CCc2c(sc(NC(=O)C3COc4ccccc4O3)c2C(N)=O)C1` (centres unmarked) is lower in “hERG current change (%, negative = inhibition) at 10uM” value: -10.6% for the first, -20% for the second.

First: CC(C)CNC(=O)C1CCN(c2ccc(S(=O)(=O)N3CCOCC3)cc2)CC1
Second: COc1ccc(COC(=O)c2ccc(C)c(S(=O)(=O)N3CCOCC3)c2)cc1F
The “hERG current change (%, negative = inhibition) at 10uM” value of the first is lower: -5.95% for the first, -3.65% for the second.

First: COc1ccc(CC(=O)Nc2ccc(F)c(F)c2F)cc1S(=O)(=O)N1CCOCC1
Second: COc1cc(OC)c(NC(=O)CS(=O)(=O)Cc2nc(-c3ccc(C)cc3)oc2C)cc1Cl
The “hERG current change (%, negative = inhibition) at 10uM” value of the first is lower: -16.8% for the first, 11.5% for the second.

First: CCN(CC)CCCN1CC(O)=C(c2nc3ccccc3s2)C1=N
Second: COCCN(C(=O)CCCc1nc2ccccc2s1)c1c(N)n(CC(C)C)c(=O)[nH]c1=O
The “hERG current change (%, negative = inhibition) at 10uM” value of the first is lower: -34.2% for the first, 15.1% for the second.

Compared with `COC(=O)c1c(NC(=O)Cc2cccs2)sc(C)c1C`, `CCOC(=O)c1ccc(NC(=O)NCc2ccccc2OC)cc1` is lower in “hERG current change (%, negative = inhibition) at 10uM” value: -3.56% for the first, -22.2% for the second.

Compared with `O=C1c2ccccc2CN1CCNS(=O)(=O)c1ccc2ccccc2c1`, `CCOc1ccc(NC2c3ccccc3C(=O)N2c2ccc(Cl)cn2)cc1` (centres unmarked) is higher in “hERG current change (%, negative = inhibition) at 10uM” value: -3.08% for the first, 19.2% for the second.

Going from `Cc1ccc(/C=C2/C(=N)N3N=C(CC(=O)N4CCCC4)SC3=NC2=O)cc1` to `Cc1ccc(-n2nnnc2SCC(=O)c2cc(C)n(CC3CCCO3)c2C)cc1` (centres unmarked), the “hERG current change (%, negative = inhibition) at 10uM” value falls from 12.7% to 3.39%.

Going from `COc1ccc2oc(C(=O)OCC(=O)NCCc3ccc(S(N)(=O)=O)cc3)c(C)c2c1` to `CCOC(=O)c1ccc(CNC(=O)CSc2nnc(-c3ccncc3)o2)cc1`, the “hERG current change (%, negative = inhibition) at 10uM” value falls from 13.5% to -1.31%.

Compared with `Cc1ccc(Cl)cc1N1CCN(S(=O)(=O)c2cccc(S(=O)(=O)N3CCCC3)c2)CC1`, `O=C(O)c1cccc(NC(=O)c2cccc(S(=O)(=O)N3CCCCC3)c2)c1` is lower in “hERG current change (%, negative = inhibition) at 10uM” value: 2.64% for the first, -4.7% for the second.

Going from `COc1ccc(OCCCC(=O)ON=C(N)c2ccccc2C)cc1` to `COc1ccc(CC(=O)O/N=C(\N)c2ccc(OC)cc2)cc1`, the “hERG current change (%, negative = inhibition) at 10uM” value falls from -5.48% to -12.9%.

First: COc1ccc(C2CC(C(F)(F)F)n3ncc(C(=O)NCc4cccnc4)c3N2)cc1OC (centres unmarked)
Second: COc1ccc(/C=N/NC(=O)c2cccnc2)cc1O
The “hERG current change (%, negative = inhibition) at 10uM” value of the first is lower: 4.49% for the first, 11.1% for the second.

Compared with `CSc1ccc(CCNC(=O)c2nn(C)c3c2CS(=O)(=O)c2ccccc2-3)cc1`, `Cc1cccc(C)c1NC(=O)CN1C(=O)NC(C)(CCc2ccccc2)C1=O` (centres unmarked) is higher in “hERG current change (%, negative = inhibition) at 10uM” value: -48.2% for the first, 18.1% for the second.

Going from `Cc1ccccc1C(=O)c1cccn1CC(=O)NCC(C)c1ccccc1` (centres unmarked) to `Cc1c(Cl)cccc1NC(=O)CNC(=O)c1cn(-c2ccccc2)nc1-c1cccnc1`, the “hERG current change (%, negative = inhibition) at 10uM” value falls from -20.3% to -39.5%.

First: O=C(Nc1ccccc1Cl)N1CCn2c(nc3ccccc32)C1
Second: O=C(c1ccc(Cl)cc1)N1CCC(=O)N(C(CO)Cc2ccccc2)CC1 (centres unmarked)
The “hERG current change (%, negative = inhibition) at 10uM” value of the first is higher: -8.42% for the first, -12.6% for the second.

Going from `CC(C)N(C)C(=O)C(=O)c1cccn1-c1cccc(Cl)c1C#N` to `CCN(c1ccccc1)S(=O)(=O)c1ccc(C(C(=O)OC)C(=O)OC)c([N+](=O)[O-])c1`, the “hERG current change (%, negative = inhibition) at 10uM” value falls from 10.4% to -7.33%.

Going from `C=CCN=C1SC(CC)C(=O)N1S(=O)(=O)c1ccc(C)cc1` (centres unmarked) to `Cc1ccc(S(=O)(=O)Nc2ncc(C(F)(F)F)cc2Cl)cc1`, the “hERG current change (%, negative = inhibition) at 10uM” value rises from 6.92% to 15.9%.

First: CCN1C(=O)[C@@H]2[C@@H](c3ccc(-c4ccc(F)cc4)cc3)N3CCCC[C@@]3(C(=O)OC)[C@@H]2C1=O.O=C(O)C(F)(F)F
Second: CCOc1ccc(CNC(=O)c2ccc(Sc3ccc(C)cc3)c(NC(C)=O)c2)cc1OC
The “hERG current change (%, negative = inhibition) at 10uM” value of the first is higher: -7.48% for the first, -21.5% for the second.

Compared with `CCOC(=O)Cn1nc2sc3ccccc3n2c(=O)c1=O`, `COc1ccc2nc(NC(=O)CCNC(=O)c3ccco3)sc2c1` is lower in “hERG current change (%, negative = inhibition) at 10uM” value: 10.6% for the first, -20.1% for the second.

Going from `O=C1Nc2cc(Cl)c(Cl)cc2N(O)N1c1ccccc1` to `CCCCn1c(O)c(C(C)=NCCc2c[nH]c3ccccc23)c(=O)[nH]c1=O`, the “hERG current change (%, negative = inhibition) at 10uM” value falls from 16% to -16%.

Compared with `Cc1ccc(CSc2nnc(SCC(=O)N/N=C/C=C/c3ccccc3[N+](=O)[O-])s2)cc1`, `CCC(=O)Nc1ccc(C(=O)N/N=C/c2ccccc2[N+](=O)[O-])cc1` is lower in “hERG current change (%, negative = inhibition) at 10uM” value: 15.5% for the first, 14.1% for the second.

Going from `Cc1ccccc1Nc1c([N+](=O)[O-])cncc1[N+](=O)[O-]` to `CN1CCN(c2ccc([N+](=O)[O-])c3no[n+]([O-])c23)CC1`, the “hERG current change (%, negative = inhibition) at 10uM” value falls from -16.3% to -47.1%.

First: CS(=O)(=O)N1CCC(C(=O)Nc2cccc(C(F)(F)F)c2)CC1
Second: CC1CCC(NC(=O)CN(C)S(=O)(=O)c2ccc3c(c2)c(=O)n(C)c(=O)n3C)CC1 (centres unmarked)
The “hERG current change (%, negative = inhibition) at 10uM” value of the first is lower: -14.2% for the first, -11.1% for the second.

First: NS(=O)(=O)c1ccc(-c2ccc(/C=C3\SC(=O)NC3=O)o2)cc1
Second: O=C(CNS(=O)(=O)c1ccc(Br)cc1)NCc1ccncc1
The “hERG current change (%, negative = inhibition) at 10uM” value of the first is higher: 19.8% for the first, 1.34% for the second.

Going from `CC(=O)CCc1c(C)c2cccc(C)c2[nH]c1=O` to `Cn1c(=O)[nH]c(=O)c2c1[nH]c(=S)n2Cc1ccc(Cl)cc1`, the “hERG current change (%, negative = inhibition) at 10uM” value rises from 6.89% to 23.3%.

First: CCN(CCn1cccn1)Cc1nc(-c2ccc(OC)cc2)no1
Second: CCCN(CCC)CCNC(=O)CS(=O)Cc1nc(-c2ccc(C)cc2)oc1C (centres unmarked)
The “hERG current change (%, negative = inhibition) at 10uM” value of the first is higher: -7.61% for the first, -31.2% for the second.

Going from `C[C@H]1O[C@H](O[C@H]2[C@H](O[C@@H]3CC[C@@]4(C)C(CC[C@]5(C)C4CC=C4[C@@H]6CC(C)(C)CC[C@]6(C(=O)O[C@@H]6O[C@H](CO)[C@@H](O)[C@H](O)[C@H]6O)CC[C@]45C)C3(C)C)O[C@H](C(=O)O)[C@@H](O)[C@@H]2O)[C@@H](O)[C@@H](O)[C@@H]1O` (some centres unmarked) to `COc1cc2cc(C(=O)N[C@@H](Cc3ccccc3)C(=O)O)n(C)c2c(OC)c1OC`, the “hERG current change (%, negative = inhibition) at 10uM” value rises from 14% to 16%.

Compared with `CCC(C)NC(=O)C(Cc1ccccc1)n1cccc1` (centres unmarked), `COc1ccccc1N1CCN(/N=C\c2cccnc2)CC1.Cl` is lower in “hERG current change (%, negative = inhibition) at 10uM” value: 0.373% for the first, -0.26% for the second.

Compared with `CSc1ccc(C(=S)N2CCN(CCO)CC2)cc1`, `CNc1nc(Sc2ccc(C)cc2)cc(C(F)(F)F)n1` is higher in “hERG current change (%, negative = inhibition) at 10uM” value: -13.9% for the first, 15.5% for the second.

In the case of `Cn1c(O)c(/C=N/N2CCOCC2)c(=O)n(C)c1=S`, the “hERG current change (%, negative = inhibition) at 10uM” value is reported as 3.82%.
